Among all 48,000 compounds or so, about 120 (0.25%) were called active. About 4% were inconclusive and are not listed. The call rests on the fitted dose curve; in most records, active means well fitted activation curve with a large enough effect; inconclusive means small, poorly fitted or top-dose-only effect, or another doubt; inactive means no such curve, though single readings can be large or run the other way. The list shows a part of the results, in another mix than the full data. The source gives no active or inactive call for entries shown without one.
Test: Primary qHTS for Identification of Small Molecule Activators of Huntingtin-Antisense Promoter Activity; further: nearly all actives have a fitted effect of over 55% in size
Conditions: HEK293 HTT-AS promoter firefly luciferase reporter, 24 h; activity change, positive = activation: at 57.5 µM (top of the series), percent change from vehicle, -100% = no light
In short: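 Quantitative HTS used concentration series of up to 57.5 uM final on HEK293 luciferase reporter cells, 24 h at 37 degrees C. Readout was Dual-Glo firefly luminescence.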
Potency means the concentration at half of the fitted maximal effect.

Compound | activity change, positive = activation | Potency
Cc1cccc(OCCn2c(-c3ccc(Cl)cc3)nc3ccccc3c2=O)c1 | -8.22% | –
COc1cc(NC(=O)CC2C(=O)N(c3ccc(Cl)cc3)C(=O)N2Cc2cccs2)cc(OC)c1 (configuration not stated) | -34.1% | –
C=C1[C@H](n2cnc3c(=O)[nH]c(N)nc32)C[C@H](O)[C@H]1CO | inactive: -7.72% | –
C=C(C)CSc1nc2sc3c(c2c(=O)n1-c1ccccc1)CC(C(C)C)OC3 (configuration not stated) | -1.45% | –
Cn1c(=O)c2c(-c3ccccc3)n3c(c2n(C)c1=O)C(c1ccco1)Nc1ccccc1-3 (configuration not stated) | 3.75% | –
Cc1nn(-c2ccc(N3CCCC3)nn2)c(C)c1CCC(=O)N1CCN(c2ccccc2)CC1 | -18.8% | –
COc1ccc2c(C)c(CCC(=O)NCc3ccc(Cl)cc3)c(=O)oc2c1C | -14.3% | –
COc1cc2c(-c3cc(Br)ccc3O)nc3c(c(C)nn3-c3ccccc3)c2cc1OC | -18.9% | –
CCc1ccc(S(=O)(=O)Nc2ccc(-c3ccc(N4CCCC4)nn3)cc2)cc1 | 5.87% | –
NC(=O)Nc1cc(-c2ccc(CN3CCOCC3)cc2)sc1C(N)=O | – | active: 21.7 µM
CCN1CCN(Cc2c(O)ccc3oc(C)c(C(=O)Nc4cccc(C(F)(F)F)c4)c23)CC1 | -22.7% | –
CC1CCN(c2ccc(-c3cccc(NS(=O)(=O)c4ccc(F)cc4F)c3)nn2)CC1 | 49.1% | –
Cc1ccc(Nc2ncnc3sc4c(c23)CCC(C)C4)cc1C (configuration not stated) | inactive: -3.14% | –
CCc1c(C)c2cc3c(c(C)c2oc1=O)OCN(CCc1ccccc1F)C3 | 9.56% | –
Cc1nc(-c2ccc(F)cc2)sc1CCNC(=O)Cc1ccc(F)cc1 | inactive: -34.3% | –
COc1ccc(C(Nc2ccccn2)c2ccc3ccc(C)nc3c2O)cc1C (configuration not stated) | inactive: -30.8% | –
Cc1cccc(N2CCN(C3=C(c4ccccc4)C(=O)c4ccccc43)CC2)c1C | -5.99% | –
CC(=O)c1ccc(NS(=O)(=O)c2ccc3c(c2)NC(=O)CCS3)cc1 | inactive: -19.4% | –
CCOc1ccccc1CNCCCSc1nnnn1C | inactive: -4.74% | –
Cc1nc2scc(C)n2c(=O)c1S(=O)(=O)Nc1cccc(O)c1 | -11.6% | –
COc1ccc(-c2cc(C(=O)Nc3cc(C)ccc3O)no2)cc1OC | 10% | –

Compound | activity change, positive = activation | Potency
COc1ccc(NCc2ccccc2-c2nnc(-c3ccccc3)o2)cc1Cl | 32.3% | –
Cc1cc(NC(c2nnc(-c3ccccc3)o2)c2ccccc2F)ccc1Br (configuration not stated) | -19.6% | –
O=C(NCC(c1ccc2c(c1)OCO2)N1CCOCC1)c1ccccc1 (configuration not stated) | inactive: -5.21% | –
COc1ccc(OC)c(-c2cc(C(=O)Nc3ccc(C)c(C)c3)no2)c1 | 8.61% | –
COc1cc(OC)cc(C(=O)Nc2cc3c(cc2N2CCCCC2)n(C)c(=O)n3C)c1 | 3.02% | –
COc1ccc(CNC(=O)c2cnc3sc(N4CCC(C)CC4)nn3c2=O)c(OC)c1 | 10.1% | –
COC(=O)COc1ccc(C2C(C(=O)OC)=C(C)NC3=C2C(=O)c2ccccc23)cc1OC (configuration not stated) | -12.5% | –
Cc1ccc(-c2nc3ccccc3[nH]2)cc1NC(=O)COc1ccccc1[N+](=O)[O-] | inactive: -36.3% | –
Cc1ccc(CNC(=O)Cn2c(SCC(=O)Nc3ccc(F)cc3)nc3ccccc32)cc1 | inactive: -38.1% | –
CCOc1ccc(C2C(=O)N(C3CCCCCC3)CC(=O)N2Cc2ccccc2)cc1OC (configuration not stated) | -17.6% | –
CC(=O)c1cccc(NC(=O)Nc2sc3nc4n(c(=O)c3c2C)CCC(C)CC4)c1 (configuration not stated) | -9.48% | –
COc1ccc2c(C)c(CC(=O)NCCc3ccc(Cl)cc3)c(=O)oc2c1C | 2.81% | –
O=C(Nc1cc(-c2ccccc2)sc1C(=O)O)c1cccc(F)c1 | inactive: -1.58% | –
CCCOC(=O)c1cccc(Nc2nc(CCC)cc(=O)[nH]2)c1 | -46.3% | –
CCOC(=O)c1cccc(NC(=O)c2ccc3c(c2)nnn3CC)c1 | inactive: -2.58% | –
Cc1ccccc1C(=O)Nc1cccc(OCc2cc(=O)n3c4c(sc3n2)CCCC4)c1 | inactive: -7% | –
O=C(CCCCn1c(=O)[nH]c2ccsc2c1=O)N1CCN(c2cccc(C(F)(F)F)c2)CC1 | inactive: -39.9% | –
CCN1CCN(Cc2c(O)ccc3oc(C)c(C(=O)Nc4ccc(OC)cc4)c23)CC1 | 12.1% | –
COc1cccc(-c2cc(C(=O)NCc3ccccc3)no2)c1 | 23.4% | –
Cc1ccccc1C(=O)N1CCC(N2CCN(Cc3ccc(F)cc3)C(=O)C2=O)CC1 | 2.16% | –
CCOc1ccc(NC(=O)CSc2nc(-c3cccs3)cc(C(F)(F)F)c2C#N)cc1 | inactive: -4.64% | –

Compound | activity change, positive = activation | Potency
CCCCCNC(=O)c1cc2c(=O)n3ccccc3nc2n1C | – | active: 2 µM
COc1cccc(C(=O)NCC2OCCc3ccccc32)c1 (configuration not stated) | 20.2% | –
CCCOc1ccc(C2C(=O)N(C3CCCCCC3)CC(=O)N2Cc2ccccc2OC)cc1OC (configuration not stated) | -29.4% | –
Cc1ccc(Nc2nc3nonc3nc2Nc2cccc(C(F)(F)F)c2)cc1Cl | inactive: -91% | –
CCOC(=O)[C@@H](N)CCC(=O)N[C@@H](CSCc1ccccc1)C(=O)N[C@@H](C(=O)OCC)c1ccccc1 | inactive: -17.7% | –
Cc1cccc(-n2c(C)cc(C(=O)C(=O)Nc3ccccc3F)c2C)c1C | inactive: -20.3% | –
Cc1ccc(S(=O)(=O)N2CCC(N3CCN(Cc4ccccc4)C(=O)C3=O)CC2)cc1C | -11.9% | –
O=C(NCc1ccccc1)C1CCN(S(=O)(=O)Cc2ccccc2)CC1 | -4.23% | –
COC(=O)c1ccc(N2C(=O)Cc3cc(OC)c(OC)cc3C2c2ccc(F)cc2)cc1 (configuration not stated) | -21.5% | –
O=C1C(c2ccc(F)cc2)N(CCc2ccc(Cl)cc2)C(=O)CN1C1CCCCC1 (configuration not stated) | -21.3% | –
CCc1ccc(S(=O)(=O)Nc2cccc(-c3ccc(N4CCCCC4)nn3)c2)s1 | 38.1% | –
COc1cccc(-c2cc(C(=O)NCCc3ccc(OC)c(OC)c3)no2)c1 | -3.22% | –
O=C(COc1ccc(F)cc1)OCc1cc(=O)n2nc(C3CC3)sc2n1 | inactive: -8.4% | –
CCCCN(C)CC(O)Cn1cc(/C=C/C(=O)c2ccc(OCC)cc2)c2ccccc21 (configuration not stated) | inactive: -20% | –
CC#CCn1c(N2CCC[C@@H](N)C2)nc2c1c(=O)n(Cc1nc(C)c3ccccc3n1)c(=O)n2C | inactive: -3.17% | –
COC(=O)c1cc2oc3ccccc3c2n1CC(=O)Nc1ccc(C)cc1Cl | 15.1% | –
Cc1ccc(C)c(N2CCN(CCCNC(=O)c3ccc4nc(C(C)C)oc4c3)CC2)c1 | inactive: -29.9% | –
CCOc1ccc(CCNC(c2nnc(-c3ccccc3)o2)c2ccccc2Cl)cc1OCC (configuration not stated) | -26.8% | –
CC(=O)c1ccc(NC(=O)c2nn(C)c3c2CS(=O)(=O)c2ccccc2-3)cc1 | inactive: -1.75% | –
Cc1ccc(-n2ncc(C(=O)N(C)Cc3ccccc3)c2-n2cccc2)cc1 | -27.5% | –

Reference: PubChem BioAssay AID1508624 (National Center for Advancing Translational Sciences (NCATS), 2021)
